Experimental data reported in PubChem BioAssay AID485344 (National Center for Advancing Translational Sciences (NCATS), 2010).
The whole screen tested about 340,000 compounds, of which about 6,900 (2%) were called active. Cut-off read from the data, not from the text of the source: active = inhibition above about 30%; inactive = below that, where a call was filed. The list shows a part of the results, in another mix than the full data. Entries without a call were filed so in the source.

The compounds below were run against D(2) dopamine receptor (Homo sapiens) (UniProt P14416) (assay: HTS Assay for Allosteric Antagonists of the Human D2 Dopamine Receptor: Primary Screen for Antagonists). Settings: HEK293 TREx D2 cells, calcium flux, dopamine EC80; at 10 µM; stronger effect = higher value.
Sequence of UniProt P14416 (P14416 whole entry, looked up): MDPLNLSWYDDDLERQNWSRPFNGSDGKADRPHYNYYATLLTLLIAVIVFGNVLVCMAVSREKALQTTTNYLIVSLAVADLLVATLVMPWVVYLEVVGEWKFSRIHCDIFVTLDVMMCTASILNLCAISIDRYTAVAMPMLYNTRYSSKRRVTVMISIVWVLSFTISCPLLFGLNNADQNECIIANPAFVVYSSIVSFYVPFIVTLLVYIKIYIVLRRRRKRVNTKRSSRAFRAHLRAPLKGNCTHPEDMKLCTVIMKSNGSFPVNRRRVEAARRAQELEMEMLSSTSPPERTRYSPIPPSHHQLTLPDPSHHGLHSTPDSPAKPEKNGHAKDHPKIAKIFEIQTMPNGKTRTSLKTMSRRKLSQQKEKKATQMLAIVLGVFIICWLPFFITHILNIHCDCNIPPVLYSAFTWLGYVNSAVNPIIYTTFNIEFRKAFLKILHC
Summary of the method: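 Measurement of antagonist activity uses fluorescent calcium dye in inducible HEK293 T-REx D2 cells: 10 s baseline, compound addition with 180 s read, EC80 dopamine addition with a further 180 s read.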
Note: 0% is about no effect.

SMILES | inhibition
Cc1ccc(S(=O)(=O)NCC2CCC(C(=O)NCCc3ccccc3)CC2)cc1 (stereo not given) | 3.49%
CCc1nc2ccc(C(=O)N3CCN(c4cc(Cl)ccc4C)CC3)cc2nc1CC | 13.3%
CC(=O)Nc1ccc(S(=O)(=O)NC2(C(F)(F)F)C(=O)Nc3c2c(=O)[nH]c(=O)n3-c2cccc(Cl)c2)cc1 (stereo not given) | -5.77%
CCOC(=O)c1cnc2cc(C(F)(F)F)ccc2c1Nc1ccc(F)cc1F | -9.36%
COC(=O)CC(NS(=O)(=O)c1cccs1)c1ccccc1Cl (stereo not given) | active: 34.7%
CCC(=O)N1CCc2cc(CNS(=O)(=O)c3cc(OC)ccc3OC)ccc21 | 6.18%
CC(NC(=O)c1ccc2c(c1)N(Cc1ccc(Cl)cc1)C(=O)CS2)c1ccccc1 (stereo not given) | -3.46%
CCN(c1cccc(C)c1)S(=O)(=O)c1cc(Br)cc2c1N(C(C)=O)C(C)C2 (stereo not given) | -8.01%
CC1CCN(C(=O)CSc2n[nH]c(-c3ccc(F)cc3)n2)CC1 | -15%
CCc1ccc(-n2nnc(-c3nc(-c4cccs4)no3)c2N)cc1 | 13.1%
CC(C)OC(=O)c1ccc(Cn2nnc3sc4c(c3c2=O)CCCC4)cc1 | 2.09%
CCCN(c1c(C)n(C)n(-c2ccccc2)c1=O)S(=O)(=O)c1ccc(C)cc1 | 0.825%
COC(=O)CSc1ncc2c(n1)-c1ccccc1N(Cc1ccc(Cl)cc1)S2(=O)=O | -4.04%
COc1ccc(CCn2c3c(c(=O)[nH]c2=O)C(NC(=O)c2ccc(Cl)cc2)(C(F)(F)F)C(=O)N3)cc1OC (stereo not given) | 3.77%
COc1ccc(CNc2ncnc3c2nc2n3CCCC2)cc1 | 7.58%
Cc1cccc(CNC(=O)Cn2c(-c3cccs3)cc3ccccc32)c1 | -3.11%
COc1ccc(NC(=O)c2c(C)oc3ccc(O)c(CN4CCC(C)CC4)c23)cc1Cl | 10.9%
COc1cccc(NC(=O)CN2C(=O)c3cccc4cccc2c34)c1 | -5.92%
Cn1ncc2c(Nc3cc(C(F)(F)F)ccc3Cl)ncnc21 | 12.1%
Cc1ccc(-n2ncc(C(=O)N3CCN(c4cc(Cl)ccc4C)CC3)c2C2CCN(C(=O)OC(C)(C)C)CC2)cc1 | 13.4%

SMILES | inhibition
Cc1ccc(C)c(Cn2c3ccccc3c3cnn(CC(=O)NC(C)CCc4ccccc4)c(=O)c32)c1 (stereo not given) | -1.19%
COc1ccc(CCNC(=O)c2ccc3c(c2)N(Cc2ccccc2)C(=O)c2ccccc2S3=O)cc1OC (stereo not given) | 4.75%
COC(=O)c1ccc(Cl)cc1NC(=O)Nc1nnc(N2CCCC2)s1 | -6.53%
CCOc1ccc(NC(=O)C(Cc2ccccc2)NS(=O)(=O)c2ccc3c(c2)oc(=O)n3C)cc1 (stereo not given) | -19.2%
COc1cc(CO)ccc1Oc1nnnn1-c1ccc(C(N)=O)cc1 | active: 31.1%
COc1ccccc1C(=O)Nc1ccc2nc(SCC(=O)N(C)c3ccccc3)sc2c1 | 16.7%
CCS(=O)(=O)c1ncc(N(Cc2ccccc2)Cc2ccco2)c(C(=O)Nc2cccc(Cl)c2C)n1 | 10.5%
CCOc1ccc(NC(=O)c2c(Nc3ccccc3C)sc(C(=O)c3ccccc3)c2N)cc1 | -16.7%
O=C(CN1C(=O)C2(SCC(=O)N2c2cccc(Cl)c2)c2ccccc21)NCCc1ccccc1 (stereo not given) | -3.14%
CCOc1ccc(CNC(=O)c2ccc3c(c2)c(C)c(C)n3Cc2ccccc2)cc1OC | -2.69%
Cc1ccc2oc(=O)c3cnn(CC(=O)N4CCN(c5ccc(F)cc5)CC4)c3c2c1 | 9.73%
COc1ccc([N+](=O)[O-])cc1NC(=S)NC(NC(=O)C(c1ccccc1)c1ccccc1)C(Cl)(Cl)Cl (stereo not given) | active: 71.3%
Cc1ccc(Nc2c(-c3c[nH]c4ccccc34)nc3ccccn23)cc1 | 14.4%
CC(C)Oc1ccccc1-c1nc(SCC(=O)c2ccc(F)cc2)n[nH]1 | 6.74%
Cc1ccc(CNC(=O)CSc2nc3c(sc4ccccc43)c(=O)n2CCCOC(C)C)cc1 | 2.93%
Cc1ccc(NC(=O)Cn2c(=O)n(Cc3ccccc3)c(=O)c3sc4ccccc4c32)cc1 | -22%
Cc1ccc(-n2c(=O)c3sc4ccccc4c3n(CC(=O)NC3CCCC3)c2=O)cc1C | -1.4%
COc1ccc(OC)c(CCNC(=O)c2cc3c(s2)-c2c(C)cccc2OC3)c1 | 22.7%
Fc1ccc(C(c2nnc(-c3ccccc3)o2)N2CCN(c3cccc(Cl)c3)CC2)cc1 (stereo not given) | -4.16%
Cn1c2ccccc2c2cnn(CC(=O)NCCCN3CCCCC3)c(=O)c21 | -3.52%

SMILES | inhibition
CCOc1ccc(NC(=O)CSc2cn(CCNC(=O)c3ccccc3F)c3ccccc23)cc1 | 2.68%
COc1ccc(CN2C(=O)C(NC(=O)c3cccc(C)c3)(C(F)(F)F)N=C2c2ccccc2)cc1 (stereo not given) | 4.09%
CCc1ccccc1NC(=O)CSc1nncn2c1cc1oc(C)cc12 | 9.26%
Cc1ccc(S(=O)(=O)N2CCC(C(=O)N3CC(C)OC(C)C3)CC2)cc1 (stereo not given) | active: 50.5%
O=C(NCCS(=O)(=O)N1CCN(c2ccc(F)cc2)CC1)C(c1ccccc1)c1ccccc1 | 17.5%
CC(=O)c1cccc(NC(=O)CSc2nnc3ccc(-c4ccc(Br)cc4)nn23)c1 | 15.5%
CCOc1ccccc1NC(=O)CCn1c(-c2ccc(OC)cc2)cc(C(C)=O)c1C | 6.92%
CCOc1ccccc1NC(=O)C(C)Sc1cc(-c2ccccc2)nc(C)n1 (stereo not given) | -5.86%
Cc1ccc(NCc2cccn2-c2nnc(N3CCCCCC3)s2)cc1 | 1.53%
COc1ccc(-c2nnc(SCC(=O)Nc3cccc(F)c3)s2)cc1 | 4.07%
Cn1c(=O)cc(SCC(=O)NCc2ccc(F)cc2)c2ccc(Cl)cc21 | -24.6%
CCCCNC(=O)C1CCN(S(=O)(=O)c2cc(Br)cc3c2N(C(=O)CC)CC3)CC1 | 13%
COc1cc(Cl)c(C)cc1NC(=O)CCc1nc2cccnc2n1-c1ccccc1 | 8.23%
CC1=C(C(=O)Nc2ccccc2)C(c2ccccc2)n2nc(-c3ccco3)nc2N1 (stereo not given) | 0.71%
CC(=O)Nc1nnc(SCc2cc(=O)c3cc(C)ccc3[nH]2)s1 | -2.07%
COc1ccc(NC(=O)Cn2c(SCc3cccc(Cl)c3)nc3ccncc32)c(OC)c1OC | -11.1%
Nc1nc(-c2ccc(Cl)cc2)cn1N | active: 30.2%
Cc1ccc(S(=O)(=O)N(C)C)cc1NC(=O)COC(=O)c1n[nH]c(=O)c2ccccc12 | active: 51.7%
COc1ccccc1CNC(=O)C(=O)NCC(c1cccs1)S(=O)(=O)c1ccc(F)cc1 (stereo not given) | -4.81%
CC1=C(C(=O)OCC2CCCCC2)C(c2ccc(F)cc2F)CC(=O)N1 (stereo not given) | 2.59%
